Results reported in the supplement of paper PMC12217912.
The list shows a part of the results. Sequences were assembled here from the parent chain. Values near 0.05 are background.

B1: TEV protease; numbered along this chain (parent)
chain: MGESLFKGPRDYNPISSSICHLTNESDGHTTSLYGIGFGPFIITNKHLFRRNNGTLVVQSLHGVFKVKDTTTLQQHLVDGRDMIIIRMPKDFPPFPQKLKFREPQREERICLVTTNFQTKSMSSMVSDTSCTFPSGDGIFWKHWIQTKDGQCGSPLVSTRDGFIVGIHSASNFTNTNNYFTSVPKNFMELLTNQEAQQWVSGWRLNADSVLWGGHKVFMVKPEEPFQPVKEATQL

Variants of: B1
Experiment: raw area under fraction-flipped curve 0-4 h after induction (AUC4h, not background-subtracted), DNA-recorder readout of cleavage of the substrate (dimensionless); higher = more cleavage of the substrate by the protease variant
Settings: temperature: 34 °C; time window: 0-4 h after rhamnose induction
Protocol: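 In vivo DNA recorder in E. coli TOP10(DE3) ΔrhaA at 34 °C. Each TEVp single-site mutant (parent TEVp 0) is paired with a single-site variant of the 7-mer TEVs (canonical ENLYFQ|S). The substrate sits between flexible linkers in a Bxb1-sfGFP-TEVs-SsrA fusion, so cleavage stabilises Bxb1 and speeds flipping of a recombination array, read by NGS. The value is the raw area under the fraction-flipped curve over 0-4 h after rhamnose induction (AUC4h), with ≥20 reads per time point. It is not background-subtracted; inactive controls average about 0.047.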
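Note: Bxb1 expression induced with 0.2% (w/v) L-rhamnose at OD600 near 0.5, cultures sampled hourly, flipped fraction per protease–substrate barcode pair counted by paired-end Illumina sequencing.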

Variant | area with substrate ENAYFQS | area with substrate ENDYFQS | area with substrate ENEYFQS | area with substrate ENGYFQS | area with substrate ENHYFQS | area with substrate ENNYFQS | area with substrate ENQYFQS | area with substrate ENRYFQS | area with substrate ENSYFQS | area with substrate ENTYFQS | area with substrate ENVYFQS | area with substrate ENYYFQS | area with substrate ENCYFQS | area with substrate ENIYFQS | area with substrate ENMYFQS | area with substrate ENFYFQS | area with substrate ENKYFQS | area with substrate ENPYFQS | area with substrate ENWYFQS
P222E | 0.0657 | 0.0547 | 0.0889 | 0.0686 | 0.0535 | 0.0588 | 0.0479 | 0.0495 | 0.0614 | 0.0501 | 0.0638 | 0.0245 |  |  |  |  |  |  | 
S209F | 0.0691 | 0.0516 | 0.0697 | 0.0651 |  | 0.0647 | 0.0581 | 0.0509 | 0.0549 |  | 0.0741 | 0.0577 | 0.0766 | 0.097 | 0.0754 |  |  |  | 
E189M | 0.0535 | 0.0598 | 0.0559 | 0.0876 | 0.0726 | 0.0601 | 0.0774 | 0.0595 | 0.0577 | 0.0394 | 0.0781 | 0.0554 | 0.0674 | 0.104 | 0.0623 | 0.0652 | 0.057 | 0.0795 | 
E189A | 0.044 |  | 0.0671 |  | 0.0882 |  |  |  | 0.0703 |  |  |  | 0.0619 |  | 0.0862 | 0.0412 |  | 0.0445 | 0.0074
V183L | 0.0625 | 0.0552 |  |  |  |  | 0.0715 | 0.0619 | 0.0498 | 0.0498 | 0.054 |  |  |  |  |  | 0.175 | 0.0601 | 
V183N | 0.0693 |  | 0.0702 | 0.0697 |  |  |  |  |  |  | 0.0787 |  | 0.0771 |  |  |  | 0.0597 | 0.0526 | 
T192A | 0.0677 | 0.0593 | 0.0779 | 0.0585 |  | 0.0697 | 0.0652 | 0.065 |  |  |  |  |  | 0.105 |  | 0.0438 | 0.0708 | 0.0545 | 0.0682
T192F | 0.0682 | 0.0575 | 0.0427 | 0.0583 | 0.0474 | 0.0592 |  |  |  | 0.0702 | 0.0737 |  | 0.0594 | 0.1 | 0.0766 | 0.063 | 0.0571 | 0.0477 | 0.0449
S182K | 0.0547 | 0.0564 | 0.0606 | 0.0609 | 0.0603 | 0.0558 | 0.0592 | 0.0621 | 0.0565 | 0.0485 | 0.0487 | 0.043 | 0.0677 | 0.0781 | 0.0513 | 0.0558 | 0.0561 |  | 0.0473
S182N | 0.0521 | 0.0645 | 0.0817 |  |  |  | 0.0581 | 0.0539 | 0.0593 |  | 0.0515 | 0.0611 | 0.0492 |  |  | 0.0724 | 0.0535 |  | 0.0202
N193T | 0.0594 |  | 0.0694 |  | 0.0686 | 0.0597 | 0.0621 |  | 0.0388 |  | 0.056 |  |  |  |  |  |  |  | 0.0694
G214Y | 0.0558 | 0.05 |  | 0.0694 | 0.0628 | 0.0513 | 0.0539 |  | 0.0309 |  | 0.0579 | 0.0399 |  |  |  |  | 0.0755 |  | 
F226I | 0.0533 | 0.0524 | 0.0619 | 0.058 | 0.0467 |  | 0.0626 |  | 0.0593 | 0.0688 | 0.0734 |  | 0.0786 |  | 0.0593 | 0.0577 |  | 0.0485 | 0.0614
Q227S | 0.0595 | 0.0662 | 0.0563 |  | 0.0542 |  | 0.0642 | 0.0567 | 0.052 | 0.0658 | 0.0778 | 0.0664 | 0.0532 |  |  |  |  | 0.0572 | 0.058
